Experimental data as given in patent US20190167760A1 (SWEDISH ORPHAN BIOVITRUM AB PUBL, published 2019).

Target: human C3 (human, UniProt P01024 23-667; P01024 partial chain)
Experiment: SPR (Biacore 2000); Z-ABD immobilised (70 RU), analyte injected

Chain of UniProt P01024 (P01024 23-667 limits assumed, chain 1 of 2): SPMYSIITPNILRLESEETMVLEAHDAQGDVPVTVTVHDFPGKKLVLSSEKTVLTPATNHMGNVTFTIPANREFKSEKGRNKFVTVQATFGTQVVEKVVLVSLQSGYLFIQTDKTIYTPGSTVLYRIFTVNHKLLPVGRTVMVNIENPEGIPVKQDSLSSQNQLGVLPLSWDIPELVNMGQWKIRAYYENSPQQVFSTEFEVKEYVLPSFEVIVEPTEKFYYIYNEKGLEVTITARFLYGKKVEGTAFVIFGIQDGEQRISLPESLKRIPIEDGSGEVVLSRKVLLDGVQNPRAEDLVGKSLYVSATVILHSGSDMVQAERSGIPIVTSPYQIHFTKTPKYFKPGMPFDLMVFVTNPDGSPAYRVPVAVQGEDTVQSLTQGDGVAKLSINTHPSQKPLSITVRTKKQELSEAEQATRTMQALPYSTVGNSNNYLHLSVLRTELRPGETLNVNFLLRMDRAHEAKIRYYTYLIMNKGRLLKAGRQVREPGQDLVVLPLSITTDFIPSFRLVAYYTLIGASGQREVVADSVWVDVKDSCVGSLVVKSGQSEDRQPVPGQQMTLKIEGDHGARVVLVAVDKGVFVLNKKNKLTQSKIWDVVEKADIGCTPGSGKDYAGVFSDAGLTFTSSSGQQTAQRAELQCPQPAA
Chain of UniProt P01024 (P01024 672-1663 limits assumed, chain 2 of 2): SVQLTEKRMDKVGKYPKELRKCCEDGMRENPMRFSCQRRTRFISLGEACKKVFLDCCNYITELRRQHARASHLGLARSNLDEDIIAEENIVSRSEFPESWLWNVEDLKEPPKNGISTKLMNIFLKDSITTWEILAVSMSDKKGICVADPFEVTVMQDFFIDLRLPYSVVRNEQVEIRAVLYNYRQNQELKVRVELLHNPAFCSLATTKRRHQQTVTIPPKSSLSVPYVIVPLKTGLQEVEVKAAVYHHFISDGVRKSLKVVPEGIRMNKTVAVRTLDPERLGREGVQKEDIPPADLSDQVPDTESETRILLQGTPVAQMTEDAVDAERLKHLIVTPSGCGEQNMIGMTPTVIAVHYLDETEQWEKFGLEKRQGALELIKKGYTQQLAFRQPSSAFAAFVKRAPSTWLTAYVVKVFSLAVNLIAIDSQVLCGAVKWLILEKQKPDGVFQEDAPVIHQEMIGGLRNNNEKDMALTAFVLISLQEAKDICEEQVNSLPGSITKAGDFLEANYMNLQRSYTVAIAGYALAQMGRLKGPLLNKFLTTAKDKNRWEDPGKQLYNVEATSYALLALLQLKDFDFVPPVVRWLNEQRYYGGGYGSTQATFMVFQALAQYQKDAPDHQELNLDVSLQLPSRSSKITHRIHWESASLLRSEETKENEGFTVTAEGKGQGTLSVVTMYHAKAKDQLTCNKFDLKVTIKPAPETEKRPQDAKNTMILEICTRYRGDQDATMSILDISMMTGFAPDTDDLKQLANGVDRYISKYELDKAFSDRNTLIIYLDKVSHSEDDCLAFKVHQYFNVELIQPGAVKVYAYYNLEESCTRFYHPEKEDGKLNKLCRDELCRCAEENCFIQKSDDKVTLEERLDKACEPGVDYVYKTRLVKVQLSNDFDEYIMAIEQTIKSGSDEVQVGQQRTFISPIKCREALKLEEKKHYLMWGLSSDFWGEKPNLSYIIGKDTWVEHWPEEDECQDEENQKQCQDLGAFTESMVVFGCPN

B1: Z06009a (SEQ ID NO:748) fused to ABD094 (SEQ ID NO:759) by a GS linker (designed binder)
chain: AEAKYAKEVLEAWDEIDRLPNLTLDQWLAFINKLDDDPSQSSELLSEAKKLNDSQAPKVDGSLAEAKEAANAELDSYGVSDFYKRLIDKAKTVEGVEALKDAILAALP
notes: also called Z-ABD variant
binding result: no binding (tested: 400 nM)
